Reference: ChEMBL document CHEMBL5308541, “MAIP: An Open-Source Tool to Enrich High-Throughput Screening Output and Identify Novel, Druglike Molecules with Antimalarial Activity” (ACS Med Chem Lett, 2023)
In all, about 150,000 compounds went through this assay and about 540 (0.36%) showed an effect of 50% or more. Some of the results follow.

System: Plasmodium falciparum
Experiment: Primary screen in NF54 nanoGlo assay, in single point, at 2uM, 72h; a lower Z score goes with more inhibition
Assay type: functional, Erythrocyte
Conditions: timepoint 72 hour

| SMILES | % Inhibition | Z score |
| --- | --- | --- |
| Cc1ccc(NCCCNCc2cnc(N3CCCC3)s2)nc1 | -3% | 0.63 |
| COC(=O)N(C)c1ccc(NCc2cc3cc(OC)ccc3o2)cc1 | 5% | -0.99 |
| CN(CCCNc1nnc([C@H](N)c2ccccc2)o1)C1CCCC1 | -7% | 1.21 |
| N#Cc1ccc(Nc2ccnc3c(F)cc(F)cc23)cc1 | -2% | 0.52 |
| CN1CCC(CNC(=O)[C@@H]2CCCN3CCCC[C@H]23)(N(C)C)CC1 | 1% | -0.24 |
| CC1CCN([C@@H](CNc2cc(N3CCN(C)C(=O)C3)ncn2)c2ccccc2)CC1 | -1% | 0.29 |
| CN1CCN(C[C@H]2CCCN(CCCn3cccn3)C2)CC1 | -10% | 1.52 |
| CC(=O)N1CC2CN(c3nc4c(cc3C#N)CCCC4)CC2(C(=O)O)C1 (stereo not drawn) | -8% | 1.54 |
| COCCOC1CCN(Cc2cnc(NC(C)C)nc2)CC1 | -5% | 0.94 |
| Cn1cc(-c2nc(CC3CC3)cs2)nn1 | -4% | 0.81 |
| CC(CO)C(C)NC(=O)c1cc(Br)cc2[nH]c(=O)[nH]c12 (stereo not drawn) | -15% | 2.27 |
| CCN1CC(NC(=O)c2ccc(-c3cncc(C(C)(C)O)c3)cc2)C(OC)C1 (stereo not drawn) | -7% | 1.15 |
| CN(C)Cc1ccc([C@@H]2CCCN2c2nccc(N3CCC(O)CC3)n2)cc1 | -3% | 0.45 |
| CCN(CCC#N)c1ncc(Cl)cn1 | -2% | 0.39 |
| C[C@]1(C(=O)N2CCC(Cc3ccccc3C(=O)O)CC2)CC1(F)F | 9% | -1.99 |
| C[C@@H](CCc1ccc(F)cc1)NCC1CCN(C)CC1 | 8% | -1.37 |
| O=C(Nc1ccc2cnccc2c1)N1CC[C@H](N2CCNCC2)C1 | -19% | 3.3 |
| c1cnc2nc(Nc3ccc(N4CCCC4)nc3)ccc2n1 | 7% | -1.29 |
| CN1CCN(C[C@H]2CCCN(C(=O)c3ccnc4ccccc34)C2)CC1 | 5% | -1.03 |
| CC(C)(C)n1ncc2c(NCc3ccc4cccnc4c3O)ncnc21 | 31% | -6.09 |
| C[C@H]1CCCN(CCOc2ccccc2CN2CCN(c3cccnc3)CC2)C1 | -2% | 0.3 |

| SMILES | % Inhibition | Z score |
| --- | --- | --- |
| CC1c2[nH]c3ccccc3c2CCN1CC(O)c1ccc(OC(F)(F)F)cc1 (stereo not drawn) | -4% | 0.7 |
| Cc1nc(CN2CCC(Nc3ncnc4sccc34)C(O)C2)cs1 (stereo not drawn) | -1% | 0.11 |
| c1cc2ncnc(NCc3ccnc(OC4CCOCC4)c3)c2cn1 | -11% | 2.31 |
| CCc1nnc(NCCCCN2CCN(C)CC2)c(C#N)c1CC | -13% | 2.86 |
| OCCn1cc(Nc2cnc3cc(Cl)c(Cl)cc3n2)cn1 | -7% | 1.29 |
| O=C(c1cc(-c2cccs2)[nH]n1)N1CCCC2CNCCCC21 (stereo not drawn) | 4% | -0.67 |
| Cc1cc(N2CCOCC2)ccc1N[C@@H](C)C(=O)c1c[nH]c2ccccc12 | 2% | -0.4 |
| Cc1ccnc(C(=O)Nc2ccc(Nc3cc(N4CCCC4)nc(C)n3)cc2)n1 | 1% | -0.2 |
| Cn1ccc2ccc(CN3CCC(CN4CCCCC4)CC3)cc21 | -3% | 0.58 |
| CNc1nc(NCCNc2ncccc2C)cc([C@H]2CCOC2)n1 | -12% | 2.02 |
| FC(F)Oc1cncc(-c2cccc([C@@H]3COCCN3)c2)c1 | -5% | 0.94 |
| Cn1nnc2c(C(=O)Nc3ccc4[nH]c(-c5ccccn5)nc4c3)ccnc21 | 12% | -2.52 |
| Fc1cccc(-c2c[nH]c([C@@H]3CCCCN3c3nccc(-n4cccn4)n3)n2)c1 | -10% | 1.78 |
| Cc1cc(F)ccc1N1CCC(NCCNc2ncccc2C)CC1 | 1% | -0.28 |
| Cc1cc(N2CCC(NCCc3cnn(-c4ccccc4)c3)CC2)nc(N)n1 | -2% | 0.43 |
| O=C(c1ccc(-c2ccc3ocnc3c2)cc1)N1CCCN2CCC[C@H]2C1 | 7% | -1.13 |
| Cn1ncc2c(N)nc(NCC[C@H]3CCCCN3Cc3ccccc3)nc21 | -16% | 2.71 |
| Cn1nc(CO)c2c1CCN(Cc1cnc(NCc3ccccc3)nc1)C2 | 9% | -1.48 |
| O=C(N[C@H]1CCCN(C2CCCCCC2)C1)c1ccccc1-c1ncc[nH]1 | 1% | -0.24 |
| Cc1nc(NC2CCN(c3ncnc4c3CCCC4)CC2)c2cnn(C)c2n1 | -4% | 0.88 |
| COc1ccc(-c2cc(N3CCC(C(=O)NCc4nc5ccccc5[nH]4)CC3)ncn2)cc1 | 2% | -0.43 |

| SMILES | % Inhibition | Z score |
| --- | --- | --- |
| CN1CCN(C2CN(c3ncnc4cc[nH]c34)CC2O)CC1 (stereo not drawn) | 0% | 0.03 |
| OC[C@H]1CCCN(CCNCc2nc(-c3ccc(F)cc3)cs2)C1 | -2% | 0.34 |
| COCCN1C2CCC1CC(NCCCNc1ccccc1)C2 (stereo not drawn) | -6% | 0.84 |
| Cn1cc(CNc2ncnc3sccc23)c(-c2ccccc2)n1 | -4% | 0.94 |
| CCNS(=O)(=O)N1C[C@@H]2Oc3c(F)ccc(F)c3O[C@@H]2C1 | -2% | 0.36 |
| O=C(c1cc2c(s1)CCOC2)N1CCCc2n[nH]cc21 | -9% | 2.04 |
| Cc1cccc2c(-c3ccc(CN4CCCCC4)cn3)c[nH]c12 | 7% | -1.17 |
| CCC[C@]1(C(=O)O)CCCN(S(=O)(=O)c2ccc3[nH]c(=O)sc3c2)C1 | 4% | -0.64 |
| CNc1nc(C)cc(N2CCC(N3CCC[C@H](C(=O)N4CCOCC4)C3)CC2)n1 | 0% | 0.02 |
| OCCN1CCN(CCCCNc2ncc(Cl)cc2F)CC1 | -2% | 0.45 |
| CC(C)N1CCN([C@H]2CCN(C(=O)c3ncnc4[nH]ccc34)C2)CC1 | 4% | -0.79 |
| Cc1cc2nc(-c3cn(CC(N)=O)c4ccccc34)[nH]c2cc1C | -10% | 1.77 |
| COc1ccccc1CCNc1nc(CN(C)C2CS(=O)(=O)CC2O)nc2ccccc12 (stereo not drawn) | -15% | 2.89 |
| O=C(NCC[C@@H]1CCCN1)Nc1cccc(-c2cccc(Cl)c2)c1 | -5% | 0.89 |
| CNc1cncc(-c2cc(OC(F)(F)F)ccc2O)n1 | -2% | 0.35 |
| CC(=O)N1CCC(N2CCC(O)(c3csc(CN4CCN(c5ccccn5)CC4)n3)CC2)CC1 | -14% | 2.17 |
| O=C(NCc1ccc2c(c1)OCO2)c1ccc(N2CCC(NCCCOc3cccnc3)CC2)cc1 | -10% | 2.07 |
| COc1ccc(-c2[nH]ncc2CN(CCN2CCCCC2)[C@H]2CCCNC2)cc1 | 5% | -0.86 |
| COc1ccc(-c2nnc(-c3cccnc3N3CCN(C4CCN(C)CC4)CC3)o2)cc1 | 1% | -0.16 |
| Cc1csc(N2CCC(NCc3ccnc(N4CCCCCC4)c3)CC2)n1 | 4% | -0.58 |
| C[C@@H](c1ccc(-c2cccc(OCCn3ccnc3)c2)cc1)N1CCOCC1 | -6% | 0.95 |

| SMILES | % Inhibition | Z score |
| --- | --- | --- |
| Cc1ccccc1CN1CCCN(CCCNC(=O)c2nnc(-c3ccc(F)cc3)o2)CC1 | -10% | 2.08 |
| CC(C)c1ccc(CN2CCC[C@@](O)(CNCCN3CCNCC3)C2=O)cc1 | 26% | -5.1 |
| OC[C@H]1CCCCN1CCCNc1ccc2ccccc2n1 | 2% | -0.37 |
| O=C(c1c[nH]c2cc(F)ccc12)N1CCC[C@H](CN2CCOCC2)C1 | -5% | 0.69 |
| Cc1cc(C)n(-c2cncc(N3CCC(c4c[nH]c5ccccc45)CC3)n2)n1 | 0% | 0.07 |
| CN1CCN(CCCNCc2csc(-c3ncccn3)n2)[C@H](c2ccccc2)C1 | -4% | 0.93 |
| O=C(c1ccc(N2CCC(N3CCC(O)(c4ccccn4)CC3)CC2)cc1)N1CCc2ccccc2C1 | -5% | 0.89 |
| O=C(NCCCN1CCC(N2CCCCC2)CC1)c1ccn2c(-c3ccc(F)cc3)nnc2c1 | -8% | 1.64 |
| Cc1nc(C)c(F)c(N2CCC(c3cc(N)[nH]n3)CC2)n1 | 2% | -0.37 |
| CC(C)C[C@H]1Nc2ccccc2-c2nc(=O)c(-c3ccc(F)cc3)nn21 | -9% | 1.39 |
| CCNS(=O)(=O)c1cccnc1Nc1ccc(F)c(Cl)c1 | 0% | 0.03 |
| CC(C)c1noc(CCNc2nc(-c3ccncc3)nc3c2cnn3C)n1 | 4% | -0.93 |
| COCCN1CCC[C@H](CNc2nc3nonc3nc2NC2CCCC2)C1 | -1% | 0.1 |
| CCc1c(C(=O)N2CCN(CCN3CCOCC3)CC2)[nH]c2ccccc12 | 3% | -0.44 |
| CN1CCN(C[C@H]2CN(c3nc(N(C)C)cc(C(F)(F)F)n3)CCO2)CC1 | 2% | -0.53 |
| NC[C@H]1CCCN(c2ccc(C(=O)N3CCC(N4CCOCC4)CC3)cn2)C1 | -2% | 0.28 |
| O=C(NCCc1cn2cccnc2n1)C1(N2CCOCC2)CCCCC1 | 0% | -0.11 |
| Cn1ccc(N[C@@H](C(=O)c2c[nH]c3ccccc23)c2ccccc2)n1 | 3% | -0.57 |
| CN(C)CCCN1CCN(C(=O)c2ccc(-c3ccncc3F)cc2)CC1 | 7% | -1.04 |
| COc1cc(CNC[C@H]2CCN(C3CC3)C2)cc2c1OCCO2 | 8% | -1.35 |
| CCOC(=O)C[C@H](NC(=O)Nc1ccc(-c2cc3cc(Cl)ccc3[nH]2)cc1)c1ccccc1 | -9% | 1.53 |
